# Screen size: about 310,000 compounds; about 2,200 (0.71%) showed an effect of 50% or more. The effect is printed as a negative number. The list shows a part of the results.
# Molecular target: human ether-à-go-go-related gene (hERG) potassium channel (human, UniProt Q12809)
# Test: primary screen, population patch clamp on CHO cells stably expressing hERG
# human ether-à-go-go-related gene (hERG) potassium channel, sequence (Q12809 whole entry, looked up): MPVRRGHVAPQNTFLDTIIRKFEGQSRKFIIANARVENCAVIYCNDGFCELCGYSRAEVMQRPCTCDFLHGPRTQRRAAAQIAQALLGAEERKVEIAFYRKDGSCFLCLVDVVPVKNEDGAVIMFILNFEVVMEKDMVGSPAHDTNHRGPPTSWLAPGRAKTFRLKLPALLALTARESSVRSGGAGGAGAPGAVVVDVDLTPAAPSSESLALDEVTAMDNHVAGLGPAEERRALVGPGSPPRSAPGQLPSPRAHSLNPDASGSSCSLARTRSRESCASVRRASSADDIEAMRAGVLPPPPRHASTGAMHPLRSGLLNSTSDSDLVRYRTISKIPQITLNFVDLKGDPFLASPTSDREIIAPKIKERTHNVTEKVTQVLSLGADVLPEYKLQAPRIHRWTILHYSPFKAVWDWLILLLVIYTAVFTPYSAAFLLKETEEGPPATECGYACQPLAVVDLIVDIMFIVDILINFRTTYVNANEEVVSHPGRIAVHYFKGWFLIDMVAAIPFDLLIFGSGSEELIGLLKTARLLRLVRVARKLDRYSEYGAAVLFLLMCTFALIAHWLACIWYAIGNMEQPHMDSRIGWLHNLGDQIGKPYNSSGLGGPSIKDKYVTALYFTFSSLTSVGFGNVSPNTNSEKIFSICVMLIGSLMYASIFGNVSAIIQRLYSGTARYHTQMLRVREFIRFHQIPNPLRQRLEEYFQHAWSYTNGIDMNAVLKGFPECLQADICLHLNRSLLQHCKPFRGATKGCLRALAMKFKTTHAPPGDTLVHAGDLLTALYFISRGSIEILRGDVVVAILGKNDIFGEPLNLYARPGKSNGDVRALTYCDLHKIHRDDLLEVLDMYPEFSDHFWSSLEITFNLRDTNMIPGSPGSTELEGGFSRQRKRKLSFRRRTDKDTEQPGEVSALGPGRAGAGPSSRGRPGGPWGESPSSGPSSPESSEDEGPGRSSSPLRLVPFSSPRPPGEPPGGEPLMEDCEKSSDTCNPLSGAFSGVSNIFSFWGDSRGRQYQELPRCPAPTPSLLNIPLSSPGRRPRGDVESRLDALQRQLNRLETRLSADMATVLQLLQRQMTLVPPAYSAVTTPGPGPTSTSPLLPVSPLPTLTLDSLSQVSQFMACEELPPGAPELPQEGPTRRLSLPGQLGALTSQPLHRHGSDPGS
row,Structure (SMILES),"hERG current change (%, negative = inhibition) at 1uM"
1,Cc1cc(NCc2ccccn2)nc2ccccc12,0.148%
2,COc1ccc(C2C(C#N)=C(N)Oc3c2oc(CO)cc3=O)c(OC)c1OC (stereo not drawn),10.2%
3,O=C(CSc1nnc(NC(=O)C2CC2)s1)Nc1ccc(F)cc1F,-2.53%
4,C=CCN(CC=C)C(=O)Nc1cc(Cl)ccc1OC,4.63%
5,CCN1CCC[C@H]1CNC(=O)c1c(O)c(Cl)cc(Cl)c1OC.O=C(O)C(O)C(O)C(=O)O,-3.09%
6,COc1cccc(/C=N/NC(=O)CCn2nnc3ccccc32)c1,8.65%
7,Cc1ccc(S(=O)(=O)N(CC(=O)NC2CC2)c2ccc(C)c(Cl)c2)cc1,9.95%
8,CC(C)(C)C(=O)Nc1ccccc1C(=O)NCc1ccco1,2.64%
9,CC1(C)CC2CN(C(=O)Cc3ccccc3)C(C)(C2)C1 (stereo not drawn),9.25%
10,COP(=O)(OC)C1(Nc2ccc(C)cc2)CCCCC1,5.74%
11,CCCOc1ccc(N2C(=O)CC(N(CCC)C(=O)CCC(=O)O)C2=O)cc1 (stereo not drawn),10.2%
12,CCOc1cc(CNCCCN2CCOCC2)cc(Cl)c1OCC(=O)NC(C)(C)C.Cl,9.72%
13,COC(=O)c1cn(C)c2ccc(S(=O)(=O)N3CCOCC3)cc2c1=O,11.9%
14,CC(=O)c1cccc(NC(=O)c2ccc3ccccc3c2)c1,12.1%
15,COc1ccc(CCNC(=O)c2cccc(S(=O)(=O)N3CCCC3)c2)cc1OC,18.9%
16,O=C(Cn1nc(CNc2ccc(Cl)cc2)[n+]2c1CCCCC2)c1ccc(Br)cc1.[Br-],-13.3%
17,CC(=O)C1=C(c2ccc(Br)cc2)C(=O)c2ccccc2C1=O,4.5%
18,CCCCc1ccc(NC(=O)COc2ccc(C(=O)Nc3ccccc3C)cc2)cc1,12.1%
19,Fc1ccc(CN2CCN(c3ncccn3)CC2)cc1,9.13%
20,CC1(C2CC2)NC(=O)NC1=O (stereo not drawn),-1.24%
21,O=C(/C=C/c1ccco1)Nc1nc(-c2ccc(F)c(F)c2)cs1,9.53%
22,O=C(c1cccs1)N1CCN(S(=O)(=O)c2ccccc2)CC1,6.69%
23,CCOC(=O)c1c(C)c(C)n(Cc2cccc(OC)c2OC)c1C,8.24%

row,Structure (SMILES),"hERG current change (%, negative = inhibition) at 1uM"
1,O=C(OCC(=O)N1CCCC1)c1ccccc1C(=O)c1ccccc1,5.6%
2,CCN(c1ccccc1)S(=O)(=O)c1ccc(Cl)c(NC(=O)COC(=O)c2ccc[nH]c2=O)c1,9.39%
3,C/C(N)=C(/C#N)C(=O)CSc1nc2ccccc2c(=O)n1-c1ccc(C)cc1,5.23%
4,CCOC(=O)c1cc(C)sc1NC(=O)c1ccc(Cl)s1,-3.63%
5,CCCC(=O)Nc1cc(-c2nnc(OC)c3ccccc23)ccc1N1CCCCC1,-2.95%
6,COC(=O)CCN1CCc2cc(N=Nc3ccc([N+](=O)[O-])cc3)ccc21,18%
7,COc1ccc(NC(=O)c2[nH]c(C)c(C(C)=O)c2C)cc1Cl,3.57%
8,Cc1ccc(N2CCN(C(=O)c3cccc([N+](=O)[O-])c3)CC2)cc1Cl,12.5%
9,CCCNc1nc(OC(C(F)(F)F)C(F)(F)F)nc(OC(C(F)(F)F)C(F)(F)F)n1,0.303%
10,O=C1NC(=S)N(C(=O)c2ccc(F)cc2)/C1=C/c1ccccc1,10.6%
11,Cc1cc(C)n2nc(SCc3ccccc3F)nc2n1,14.1%
12,CCOc1ccc(N2C(=O)CC(NCC#N)C2=O)cc1 (stereo not drawn),12.4%
13,O=c1c2[nH]cnc2n(-c2cccc(F)c2)c(=O)n1Cc1ccccc1,9.6%
14,CS(=O)(=O)N(CC(=O)Nc1cccnc1)c1ccc2c(c1)OCO2,9.05%
15,O=C(Nc1ccc(F)cc1)c1cccnc1NCCc1ccccc1,13.2%
16,N#CCCn1cc(C(N)=O)c(-c2cccs2)n1,15.4%
17,COc1ccc(CCn2ccc(O)c(Cc3ccc(Cl)cc3)c2=O)cc1OC,3.53%
18,O=C(Nc1ccccc1Cl)NC1(C(=O)NCc2cccnc2)CCCCC1,14.2%
19,O=C1C(=O)N(CCN2CCOCC2)C(c2cccnc2)/C1=C(/O)c1ccc(Cl)cc1 (stereo not drawn),15.3%
20,CN(C)C(=O)CSc1nnc(-c2cc(-c3cccs3)nc3ccccc23)o1,18.1%
21,CCN1C(=O)C(CC(=O)Nc2ccc(F)cc2)N(CCc2ccc(OC)cc2)C1=S (stereo not drawn),8.45%
22,COc1cc(OC)c(OC)cc1/C=N/NC(=O)CC1C(=O)NN=C1C (stereo not drawn),2.12%
23,Cc1cc(C)n2c(SCC(=O)Nc3ccc(F)cc3)nnc2n1,8.14%

row,Structure (SMILES),"hERG current change (%, negative = inhibition) at 1uM"
1,COc1ccc2[nH]c(CN3CCN(CC(C)C)C(CCO)C3)c(C)c2c1 (stereo not drawn),5.18%
2,O=C(N/N=C/C(Br)=C/c1ccccc1)c1ccccc1[N+](=O)[O-],13%
3,Cc1nonc1NC(=O)CSc1nc(CCC2CCCC2)nc2ccccc12,2.07%
4,O=[N+]([O-])c1ccc(N=Cc2sc3ccccc3c2O)cc1,6.38%
5,Cc1cc(Cc2ccc([N+](=O)[O-])cc2)c(C)cn1,-2.88%
6,COc1ccccc1-n1c(SC(C)C(=O)NCC2CCCO2)nc2cc(Cl)ccc2c1=O (stereo not drawn),12.1%
7,COc1cc(NC(=O)CN2CCN(c3ccccc3O)CC2)c(C)cc1[N+](=O)[O-],23.6%
8,COc1cccc(-c2c(C(=O)N/N=C/C3CC=CCC3)nnn2-c2nonc2N)c1 (stereo not drawn),12.2%
9,Cc1ccc2nc(C3CCCCC3)[nH]c2c1,4.59%
10,Fc1ccc(CSc2ncnc3c2oc2ccccc23)cc1,5.5%
11,CCN(CC)S(=O)(=O)c1cc(NC(=O)CSc2nccn2C)ccc1C,12.9%
12,NC(=O)c1ccsc1NC(=O)COC(=O)c1ccc(Cl)nc1,15.4%
13,O=C(O)c1ccccc1C(=O)NCCCCCCNC(=O)c1ccccc1C(=O)O,7.98%
14,COc1ccc(NC(=O)C23CCC(C)(C(=O)O2)C3(C)C)cc1 (stereo not drawn),0.126%
15,CCOC(=O)CCc1c(C)c2ccc(OCc3nn[nH]n3)cc2oc1=O,13.4%
16,CN1CCC(OC(=O)COc2ccc(Br)cc2)CC1.Cl,-6.88%
17,CCOC(=O)C1(C(C)(C)CC)CC(CSc2nc3ccccc3[nH]2)OC1=O.Cl (stereo not drawn),6.93%
18,COc1cccc(-c2nc3n(n2)C(c2ccccc2Cl)C(C(N)=O)=C(C)N3)c1 (stereo not drawn),6.26%
19,Cc1ccc(C(=O)NNc2c3ccccc3nc3ccccc23)cc1,4.58%
20,COc1ccc(NC2SC(=O)N(C)C2=O)cc1 (stereo not drawn),11%
21,Cc1c(CCO)c(=O)[nH]n1C(=O)c1c(F)cccc1F,4.97%
22,COc1ccc(CNc2ccccc2SC)cc1OC,8.44%
23,CN1CCN(CCCCOc2ccccc2-c2ccccc2)CC1.O=C(O)C(=O)O,16.8%

row,Structure (SMILES),"hERG current change (%, negative = inhibition) at 1uM"
1,COc1ccc(NC(=O)COc2cccnc2[N+](=O)[O-])cc1OC,15.8%
2,Cc1ccccc1-c1nnn(CC(=O)c2ccc(S(=O)(=O)N3CCCC3)cc2)n1,10.7%
3,O=C(NC1CC1)C1CC(=O)N(c2ccc(F)cc2)C1 (stereo not drawn),20.1%
4,O=C(c1cc(Br)c[nH]1)N1CCCCC1,5.06%
5,COc1cccc(/C=C2\SC(=S)N(CCC(=O)NC3C=CS(=O)(=O)C3)C2=O)c1 (stereo not drawn),13.2%
6,COC(=O)C(C)N1CCC(=O)c2ccccc2S1(=O)=O (stereo not drawn),16.4%
7,CCNCCNC(=O)c1c(O)c2ccccc2n(CC)c1=O.Cl,15.9%
8,Cc1nc2n(c(=O)c1CCN1CCC(c3noc4cc(F)ccc34)CC1)CCCC2,-37.3%
9,O=C(Nc1ccccc1CC[N+](=O)[O-])N1CCN(c2ccccc2)CC1,9.41%
10,COc1ccc(Cc2nnc(NC(=O)c3cccc(F)c3)s2)cc1OC,13.6%
11,Cc1nc2cc(C(=O)N3CCC4(CC3)OCCO4)ccc2n1-c1ccc(Br)cc1,-0.812%
12,NC(N)=NC(N)=Nc1ccc2ccccc2c1,15.4%
13,CCCn1c(SCC(=O)N2c3ccc(F)cc3CCC2C)nnc1-c1ccccn1 (stereo not drawn),5.59%
14,Cc1nn(-c2ccccc2)c2c1C(=O)N(Cc1ccccc1)C(=O)C(C)(C)C2,-0.735%
15,COc1ccc(NC(=O)c2ccccc2OCc2c(C)noc2C)cc1OC,-9.44%
16,O=C(c1cccc2cccc(O)c12)N1CCCCC1,0.37%
17,O=C(OCc1nnc(-c2ccccc2)o1)c1ccc2c(c1)OCCO2,1.76%
18,COC(=O)C1=C(C)NC(C)=C(C(=O)OC)C1C(=O)OCC(=O)c1ccc(Br)cc1,4.37%
19,COc1cc(CN2CCC(C(=O)N3CCC(C)CC3)CC2)cc(Br)c1O.O=C(O)C(=O)O,7.15%
20,CCOc1ccc(NC(=O)CSc2nnc(C3CC3)n2N)cc1,14.8%
21,CCC(=O)NNC(=O)CCC(=O)Nc1ccc(C)cc1C,6.39%

# From article PMC4336329 (PLoS ONE, 2015)
